Assay results from PMC4336329 (PLoS ONE, 2015).
The campaign covered roughly 310,000 compounds. About 14,000 (4.5%) showed an effect of 50% or more. The effect is printed as a negative number. The list shows a part of the results.

Target: human ether-à-go-go-related gene (hERG) potassium channel (human, UniProt Q12809)
Experiment: primary screen, population patch clamp on CHO cells stably expressing hERG
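Further: peak tail current of the secondary pulse compared with the same well before compound.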

Chain of human ether-à-go-go-related gene (hERG) potassium channel (Q12809 whole entry, looked up): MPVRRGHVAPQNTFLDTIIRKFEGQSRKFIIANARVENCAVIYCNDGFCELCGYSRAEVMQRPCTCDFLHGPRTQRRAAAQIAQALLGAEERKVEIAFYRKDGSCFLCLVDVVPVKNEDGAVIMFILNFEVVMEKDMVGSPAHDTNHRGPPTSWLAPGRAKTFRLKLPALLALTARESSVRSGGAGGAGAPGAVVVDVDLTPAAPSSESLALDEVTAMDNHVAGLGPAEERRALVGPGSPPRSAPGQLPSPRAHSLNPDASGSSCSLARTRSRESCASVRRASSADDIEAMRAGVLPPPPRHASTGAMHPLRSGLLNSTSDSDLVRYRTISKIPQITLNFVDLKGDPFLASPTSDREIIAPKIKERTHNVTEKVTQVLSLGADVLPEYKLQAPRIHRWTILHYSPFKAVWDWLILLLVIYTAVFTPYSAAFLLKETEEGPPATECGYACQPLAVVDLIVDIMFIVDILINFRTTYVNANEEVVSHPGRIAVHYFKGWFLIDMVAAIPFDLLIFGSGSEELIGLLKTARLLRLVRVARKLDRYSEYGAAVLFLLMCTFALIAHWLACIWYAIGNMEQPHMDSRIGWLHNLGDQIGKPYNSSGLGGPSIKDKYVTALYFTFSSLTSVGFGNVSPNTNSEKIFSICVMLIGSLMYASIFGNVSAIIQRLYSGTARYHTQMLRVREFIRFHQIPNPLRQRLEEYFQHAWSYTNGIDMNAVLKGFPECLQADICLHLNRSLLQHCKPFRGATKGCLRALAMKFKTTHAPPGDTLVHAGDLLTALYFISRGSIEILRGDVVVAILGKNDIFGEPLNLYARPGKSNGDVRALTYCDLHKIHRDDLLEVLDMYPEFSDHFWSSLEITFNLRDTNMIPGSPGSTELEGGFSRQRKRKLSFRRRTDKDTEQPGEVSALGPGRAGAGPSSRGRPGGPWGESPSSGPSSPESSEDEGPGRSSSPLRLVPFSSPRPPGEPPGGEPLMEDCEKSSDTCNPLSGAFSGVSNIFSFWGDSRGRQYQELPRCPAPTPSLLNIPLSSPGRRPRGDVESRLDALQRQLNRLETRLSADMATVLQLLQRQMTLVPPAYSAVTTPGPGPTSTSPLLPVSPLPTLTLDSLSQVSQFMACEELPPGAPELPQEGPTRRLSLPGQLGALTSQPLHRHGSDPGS

Row | SMILES | hERG current change (%, negative = inhibition) at 10uM
1 | Cc1cc(NC(=O)CSc2nc3c(cc2C#N)CCCC3)no1 | -8.83%
2 | COc1ccc2c(c1OC)C(=O)N1c3ccccc3SC21 (stereo not shown) | 11.7%
3 | CNC(=O)C(=O)NCCN1CCN(C(=O)c2ccc([N+](=O)[O-])cc2)CC1 | -39.6%
4 | Cc1cc(C)n(-c2nnc(C)n2/N=C/c2ccco2)n1 | 9.07%
5 | Nc1cccc(-c2cc(-c3ccccc3)nc(-c3cccc(N)c3)n2)c1 | -0.0374%
6 | CCCCn1nc2cc(C(=O)N(CC)c3ccc(OC)cc3)ccc2c1OCC | -4.26%
7 | Cc1cc(C)c(NC(=O)Nc2ccccc2)c(C)n1 | 23.4%
8 | NC(=O)c1cc(-c2ccccc2)nc(N2CCCCCC2)n1 | 21.7%
9 | COc1cccc(-c2nc(=S)c3c(o2)CCCC3)c1 | 26.1%
10 | CNC(=O)OCCSCCS(=O)(=O)c1ccc(Cl)cc1 | -8.87%
11 | O=C(N/N=C1\CCCc2oc(C(=O)O)cc21)c1ccccc1 | -46.3%
12 | O=C(CN1CCc2ccccc2C1)Nc1cccc(S(=O)(=O)N2CCOCC2)c1 | -17%
13 | Clc1ccc(CSc2nnc(-c3ccncc3)o2)c(Cl)c1 | 0.528%
14 | Cn1nc(-c2ccccc2)c(-c2nc(-c3ccccc3Cl)no2)c1Cl | 12.6%
15 | Nc1nonc1-n1nnc(C(=O)N/N=C/c2ccc(OCc3cccc(Cl)c3)cc2)c1CN1CCCCC1 | 11.9%
16 | CC(C)(C)C(=O)Cn1ncc(N2CCOCC2)c(Br)c1=O | -0.203%
17 | CCOC(=O)C1(C)NC(c2ccc(OC)cc2OC)C2C(=O)N(CC)C(=O)C21 (stereo not shown) | 43.4%
18 | Cc1c(F)cccc1NS(=O)(=O)c1ccccc1C#N | -2.21%
19 | Cc1ccc(NC(=O)CCc2c(C)[nH]c(=O)c(C#N)c2C)cc1 | 6.35%
20 | CC(C)n1cnc2c(=S)nc[nH]c21 | 18.9%
21 | CC12CCC(C(=O)N(CCCCN3CCN(Cc4ccccc4)CC3)C1=O)C2(C)C.Cl (stereo not shown) | -45.2%
22 | Cc1cc(C)c2nc3c(c(C(=O)O)c2c1)CCC3 | 10.4%

Row | SMILES | hERG current change (%, negative = inhibition) at 10uM
23 | CC(=O)NC(CCS(C)(=O)=O)C(=O)Nc1cccc(C)c1 (stereo not shown) | 1.27%
24 | COc1ccc(NC(=O)c2cc(C)on2)cc1 | 9.74%
25 | COc1cccc(C(C)NC(=O)Nc2ccccc2Cl)c1 (stereo not shown) | -5.63%
26 | COc1ccc(/C(C)=C(\C#N)C(=O)OC(C)C)cc1OC | -3.32%
27 | COCCCNCC(O)C(F)(F)F (stereo not shown) | 10.8%
28 | CC(=O)c1cccc(N(C(=O)c2ccccn2)C(C(=O)NC2CCCCC2)c2ccccc2)c1 (stereo not shown) | 5.77%
29 | CCOc1ccc(OCCC(=O)N(CC)CC(=O)Nc2ccccc2C(F)(F)F)cc1 | -22.5%
30 | COc1ccccc1C(=O)Nc1ccnn1C1CCN(Cc2ccc3nonc3c2)CC1 | -72.1%
31 | CCOc1ccc(Cl)cc1S(=O)(=O)n1cnc2cc(C)c(C)cc21 | -1.31%
32 | CCC1CCCCN1C(=O)CSc1nc2ncccc2[nH]1 (stereo not shown) | 12.3%
33 | C/C(=N\N=C1/NC(=O)C(C)S1)c1ccco1 (stereo not shown) | 22.5%
34 | CCCOc1ccc(N2C(=O)CC(N3CCC(c4nncn4CC)CC3)C2=O)cc1 (stereo not shown) | -1.14%
35 | Cc1ccc(C)c(-c2nnc(OCC(=O)Nc3cc(C)on3)c3ccccc23)c1 | -25.2%
36 | CCSc1ccccc1C(=O)Nc1cccc(OC)c1 | -3.62%
37 | CNC(=S)NNC(=O)COc1ccc(C)c(C)c1 | 14%
38 | Cc1ccc(S(=O)(=O)n2c([N+](=O)[O-])cnc2C)c(C)c1C | 41.4%
39 | Cc1sc2ncnc(N3CCC(C(=O)Nc4ccc(Br)cc4Br)CC3)c2c1C | -7.07%
40 | CCc1nnc(NC(=O)CSc2nnc3c4ccccc4n(C)c3n2)s1 | 3.8%
41 | Cc1cccc(-c2noc(CCC(=O)NCc3ccco3)n2)c1 | -4.37%
42 | C/C(=N\NC(=O)c1c(Cl)c(C)nn1C)c1cccc(NC(=O)COc2ccccc2)c1 | 2.21%
43 | COc1cc([N+](=O)[O-])ccc1NC(=O)CCCOc1cccc(C)c1C | -3.24%
44 | COc1ccccc1N1CCN(C(=O)CCCNC(=O)Cn2cnc3sc(C)c(C)c3c2=O)CC1 | -3.03%

Row | SMILES | hERG current change (%, negative = inhibition) at 10uM
45 | [O-]/[N+](=C/c1ccccc1)c1ccccc1 | 15.1%
46 | CN(Cc1c(C(=O)N/N=C/c2ccc(O)cc2)nnn1-c1nonc1N)c1ccccc1 | 20.6%
47 | O=C(CC1SC(N2CCOCC2)=NC1=O)Nc1ccccc1Cl (stereo not shown) | 16.2%
48 | COc1cc(C(C)=O)ccc1COc1ccc(C(=O)OC(C)C(=O)NC(N)=O)cc1OC (stereo not shown) | 0.338%
49 | CC1(C)Oc2ccc(C(=O)NC3CCCC3)cc2N(CC(=O)NC2CCCCC2)C1=O | 9.12%
50 | O=C(O)c1ccc(CSc2nnc(-c3ccccc3Br)o2)cc1 | 10.5%
51 | COc1cccc(C(=S)N2CCCC2)c1OC | 14.9%
52 | Cc1cc(C)n(CCN(C)C(=O)CCc2nnc(CCC3CCCCC3)o2)n1 | -4.29%
53 | N#Cc1cccnc1N1CCN(C(=O)c2cccc3c2C(=O)c2ccc(Cl)cc2S3(=O)=O)CC1 | -56.6%
54 | O=C(Cc1ccccc1)Nc1ccc(-c2nnc(-c3ccco3)o2)cc1 | -2.62%
55 | Cc1ccc(S(=O)(=O)Nc2cc3c(C(=O)Nc4ccccc4)c(C)oc3c3ccccc23)cc1 | 4.88%
56 | Cc1ccc(OCC(=O)Nc2ccccc2[N+](=O)[O-])c(Br)c1 | 38.3%
57 | O=C(O)COc1ccccc1-c1ccccc1 | 18.2%
58 | C=C[C@@H]1c2cc(C)ccc2N(S(=O)(=O)c2ccc(C)cc2)[C@H](c2ccc(OC(C)=O)cc2)C1(C#N)C#N | 11.7%
59 | Cn1nc(-c2ccccc2)c(C(O)c2ccccc2C(F)(F)F)c1Cl (stereo not shown) | 26.3%
60 | COc1cccc(C(C(=O)NC2CCCCC2)N(C(=O)c2ccco2)c2ccccc2OC)c1 (stereo not shown) | -42%
61 | Cn1cc(CNCC2CCCO2)c(-c2ccc(Oc3ccccc3)cc2)n1 (stereo not shown) | -30.1%
62 | CC(C)OC(=O)c1c(NC(=O)c2ccco2)sc2c1CCCC2 | 0.68%
63 | Cc1ccc(Nc2nnc(C(C)(C)C)c(=O)n2N)cc1 | 1.06%
64 | COc1cc2[nH]c(=S)nc(NC3CCCCCC3)c2cc1OC | 2.9%
65 | CCOC(=O)C(C(=O)OCC)C(C#N)c1ccccc1 (stereo not shown) | 0.0132%
66 | CC/C(O)=C1\C(=O)CC(C)(C)CC1=Nc1ccccc1C | 1.26%

Row | SMILES | hERG current change (%, negative = inhibition) at 10uM
67 | Cc1cc(-c2n[nH]c(=S)n2-c2ccc(C)c(C)c2)no1 | 7.28%
68 | Cn1cc([N+](=O)[O-])c(C(=O)N/N=C\c2c[nH]c3ccccc23)n1 | -2.14%
69 | COc1ccc(CNC(=O)CN(C)S(=O)(=O)c2ccccc2)cc1 | -12.3%
70 | COc1ccc(C(=O)C2CCCN(Cc3cc(Cl)ccc3O)C2)c(OC)c1 (stereo not shown) | -26.8%
71 | Cc1c(NC(=O)CSc2ccccn2)c(=O)n(-c2ccccc2)n1C | 7.95%
72 | COC(=O)c1cc2sc(Cl)cc2n1CC(=O)NCC1CCCO1 (stereo not shown) | -12.8%
73 | CCc1ccc(S(=O)(=O)Nc2cc3c(cc2N2CCCCC2)n(C)c(=O)c(=O)n3C)cc1 | -85.6%
74 | Cc1cccc(NC(=O)C2(C)CC3c4ccccc4C2c2ccccc23)c1 (stereo not shown) | 9.5%
75 | COC(=O)Cc1c(C)c2ccc(OC(=O)c3ccccc3)cc2oc1=O | -8.51%
76 | COc1cc(/C=C2\SC(=Nc3ccccc3)N(Cc3ccco3)C2=O)ccc1OC(C)C(=O)O (stereo not shown) | 4.06%
77 | Cc1cc(=O)[nH]c(SCCCOc2ccc3c(c2)CCC3)n1 | -2.72%
78 | COc1cccc(N(C(=O)c2ccco2)C(C(=O)NC2CCCC2)c2ccc(N(C)C)cc2)c1 (stereo not shown) | -9.47%
79 | COc1cccc(CNc2cc(C)ccn2)c1O | 0.891%
80 | CC1CN(C(=S)Nc2ccc(Cl)cc2)CC(C)O1 (stereo not shown) | 10.5%
81 | COc1cccc(CN(C)Cc2cc(=O)oc3cc(O)c(Cl)cc23)c1.O=C(O)C(=O)O | 6.61%
82 | COc1ccc(CCN(Cc2nc(-c3ccccc3)no2)Cc2nc(-c3ccccc3)no2)cc1OC | -3.37%
83 | CCOc1ccc(N2CC(C(=O)Nc3nnc(Cc4ccc(OC)c(OC)c4)s3)CC2=O)cc1 (stereo not shown) | -1.44%
84 | Cc1nc2scc(-c3ccco3)c2c(=O)n1/N=C/N(C)C | -3.54%
85 | Cc1cc(C)cc(NC(=S)NCc2ccc3c(c2)OCO3)c1 | -8.9%
86 | COC(=O)c1ccc(COc2ccccc2/C=C(\C#N)C(=O)Nc2c(C)cc(C)cc2C)cc1 | 8.56%
87 | Cc1cc(NC(=NC2CC2)c2ccccc2)n(-c2ccccc2)n1 | 32.4%
88 | CN1C(c2ccc(F)cc2)=CS/C1=C(\C#N)c1nnc2n1-c1ccccc1SC2 | -45.5%
